Counter-ions that a name gives are not always drawn. ± gives the standard deviation of the averaged measurements. The full ranking holds about 2,600 compounds; the median of “total cell number (DAPI+ nuclei) relative to DMSO vehicle control” is about -1.4, and the lowest 2% start at about -23. Some of the results follow.
The molecules below were run on jimpy (Plp1 jimpy) mouse iPSC-derived oligodendrocyte progenitor cells (assay: total cell number (DAPI+ nuclei) relative to DMSO vehicle control (SDs above negative control mean); higher = more surviving cells). Details: 10 µM; 3 days.

Row | SMILES | total cell number
1 | N[C@]1(C(=O)O)CC[C@H](C(=O)O)C1 (racemic) [trans-(±)-ACPD] | 0.987
2 | CC(NC(C)(C)C)C(=O)c1cccc(Cl)c1 (stereo not given) [Amfebutamone HCl] | -0.515
3 | CC(NC(C)(C)C)C(=O)c1cccc(Cl)c1 (stereo not given) [Bupropion hydrochloride] | 0.698
4 | Oc1ccc2c3c1O[C@H]1c4[nH]c5ccccc5c4C[C@@]4(O)[C@@H](C2)N(CC2CC2)CC[C@]314 [Naltrindole hydrochloride] | -5.19
5 | Cn1c(CCCC(=O)O)nc2cc(N(CCCl)CCCl)ccc21 [Bendamustine hydrochloride] | -1.55
6 | Cn1c(CCCC(=O)O)nc2cc(N(CCCl)CCCl)ccc21 [Bendamustine HCl] | -4.33
7 | O=C1CC[C@@]2(O)[C@H]3Cc4ccc(O)c5c4[C@@]2(CCN3CC2CC2)[C@H]1O5 [Naltrexone HCl] | 1.24
8 | O=C1CC[C@@]2(O)[C@H]3Cc4ccc(O)c5c4[C@@]2(CCN3CC2CC2)[C@H]1O5 [Naltrexone hydrochloride] | 0.926
9 | N[C@@H]1C[C@H]1c1ccccc1 [Tranylcypromine hydrochloride] | -2.97
10 | N[C@@H]1C[C@H]1c1ccccc1 [Tranylcypromine (2-PCPA) HCl] | -2.05
11 | NCC(CC(=O)O)c1ccc(Cl)cc1 (racemic) [(±)-Baclofen] | 0.506
12 | CO[C@H]1CC[C@@H](O[C@H]2C[C@H]([C@]3(C)CC[C@]4(C[C@H](O)[C@@H](C)[C@@H]([C@@H](C)/C=C(\C)C(=O)[C@H](C)C[C@H](C)C(=O)O)O4)O3)O[C@]3(O[C@@H]([C@H]4O[C@@](O)(CO)[C@H](C)C[C@@H]4C)C[C@@H]3C)[C@@H]2C)O[C@@H]1C [Nanchangmycin] | -27.5
13 | [O-][n+]1ccccc1[S-].[O-][n+]1ccccc1[S-].[Zn+2] [Zinc Pyrithione] | -16.1
14 | CN1[C@@H]2C[C@@H](OC(=O)[C@H](CO)c3ccccc3)C[C@H]1[C@@H]1O[C@@H]12 [Scopolamine HBr] | 0.365
15 | CN1[C@@H]2C[C@@H](OC(=O)[C@H](CO)c3ccccc3)C[C@H]1[C@@H]1O[C@@H]12 [(-)-Scopolamine hydrobromide] | -1.19
16 | COC1=C[C@@H]2[C@@H]3Cc4ccc(OC)c(O)c4[C@]2(CCN3C)CC1=O [Sinomenine] | 0.57
17 | C/C(=C\c1csc(C)n1)[C@@H]1C[C@@H]2O[C@@H]2CCC[C@H](C)[C@H](O)[C@@H](C)C(=O)C(C)(C)[C@@H](O)CC(=O)O1 [Epothilone A] | -7.62
18 | CC(=O)[C@H]1CC[C@H]2[C@@H]3CC[C@H]4C[C@](C)(O)CC[C@]4(C)[C@H]3CC[C@]12C [Ganaxolone] | -1.31
19 | CN(C)CCc1ccc(O)cc1 [Hordenine] | 1.24
20 | N#CC(C#N)=Cc1ccc(O)c(O)c1 [Tyrphostin 23] | -1.53
21 | CN1CC[C@]2(CCN3CCc4c(oc5ccccc45)[C@@H]3C2)N(C)C1=O | -0.37
22 | Cc1cccc(Cc2c[nH]cn2)c1C [Detomidine HCl] | 4.09
23 | NC(=O)CI [Iodoacetamide] | -3.69

Row | SMILES | total cell number
24 | Cc1cccc(C)c1NC(=O)CN1CCCC1=O [Nefiracetam] | -0.796 ± 0.35
25 | COc1ccc2[nH]c3c(c2c1)CCNC3 [6-Methoxy-1,2,3,4-tetrahydro-9H-pyrido[3,4b] indole] | -0.987
26 | CC[C@@H](C(=O)[C@@H](C)[C@@H](O)[C@H](C)[C@@H]1O[C@@H]([C@@H](CC)C(=O)O)CC[C@@H]1C)[C@H]1O[C@]2(C=C[C@@H](O)[C@]3(CC[C@@](C)([C@H]4CC[C@](O)(CC)[C@H](C)O4)O3)O2)[C@H](C)C[C@@H]1C [Salinomycin] | -8.31
27 | C=CCN1CC[C@]23c4c5ccc(O)c4O[C@H]2C(=O)CC[C@@]3(O)[C@H]1C5 [Naloxone hydrochloride] | -0.148
28 | C=CCN1CC[C@]23c4c5ccc(O)c4O[C@H]2C(=O)CC[C@@]3(O)[C@H]1C5 [Naloxone HCl] | 1.03
29 | C[C@@H]1CC[C@@]2(OC1)O[C@H]1C[C@H]3[C@@H]4CC=C5C[C@@H](O[C@@H]6O[C@H](CO)[C@@H](O[C@@H]7O[C@@H](C)[C@H](O)[C@@H](O)[C@H]7O)[C@H](O)[C@H]6O[C@@H]6O[C@@H](C)[C@H](O)[C@@H](O)[C@H]6O)CC[C@]5(C)[C@H]4CC[C@]3(C)[C@H]1[C@@H]2C [Dioscin] | -15.1
30 | C[C@@H]1O[C@H](C[N+](C)(C)C)C[C@H]1O (racemic) [(±)-Muscarine chloride] | 0.257
31 | CP(=O)(O)C1=CCNCC1 | -2.01
32 | Cn1cc(C2=C(c3cn(C4CCN(Cc5ccccn5)CC4)c4ccccc34)C(=O)NC2=O)c2ccccc21 | -8.32
33 | NC(=O)c1cc(N2CC2)c([N+](=O)[O-])cc1[N+](=O)[O-] | -3.47
34 | CC(=O)O[C@H]1C[C@@H]2CC[C@@H]3[C@H](CC[C@@]4(C)[C@H]3C[C@H]([N+]3(C)CCCCC3)[C@@H]4OC(C)=O)[C@@]2(C)C[C@@H]1[N+]1(C)CCCCC1 [Pancuronium dibromide] | -1.01
35 | CC(=O)O[C@H]1C[C@@H]2CC[C@@H]3[C@H](CC[C@@]4(C)[C@H]3C[C@H]([N+]3(C)CCCCC3)[C@@H]4OC(C)=O)[C@@]2(C)C[C@@H]1[N+]1(C)CCCCC1 [Pancuronium bromide] | -0.512
36 | O=C1C=CC[C@@H]2[C@H]3CCCN4CCC[C@@H](CN12)[C@@H]34 [Sophocarpine] | -0.691
37 | COC(=O)[C@@H](N)CCCNC(=N)N[N+](=O)[O-] [NG-Nitro-L-arginine methyl ester hydrochloride] | -0.269
38 | O=C(NCC1CCOCC1)c1cnc(Nc2ccc(Cl)cc2Cl)nc1C(F)(F)F | -0.705
39 | O=c1ccc2cc(O[C@@H]3O[C@H](CO)[C@@H](O)[C@H](O)[C@H]3O)c(O)cc2o1 [Esculin] | 0.804
40 | CC(C)NC(C)Cc1ccc(I)cc1 (stereo not given) [Iofetamine hydrochloride] | 3.11
41 | COC(=O)N1CCN(C(=O)Cc2ccc(Cl)c(Cl)c2)C(CN2CCCC2)C1 (stereo not given) | -1.17
42 | CN1CCCCC1Cn1cc(C(=O)c2cc([N+](=O)[O-])ccc2I)c2ccccc21 (stereo not given) | -10.8
43 | CCCN(CCC)C1Cc2cc(OC)c(OC)cc2C1 | 1.68
44 | N=C(NCCC[C@H](N)C(=O)O)N[N+](=O)[O-] [NG-Nitro-L-arginine] | -1.18
45 | c1ccc2c(c1)Nc1ccccc1S2 [Phenothiazine] | 0.518

Source: the supplement of paper PMC6135742
